# From ChEMBL document CHEMBL4888484, “Replenishing the malaria drug discovery pipeline: Screening and hit evaluation of the MMV Hit Generation Library 1 (HGL1) against asexual blood stage Plasmodium falciparum ,using a nano luciferase reporter read-out” (2022)
# Among all 150,000 compounds or so, about 540 (0.36%) showed an effect of 50% or more. The list shows a part of the results.
# Test system: Plasmodium falciparum
# Experiment: Primary screen in NF54 nanoGlo assay, in single point, at 2uM, 72h; a lower Z score goes with more inhibition
# Assay type: functional, Erythrocyte
# Details: timepoint 72 hour
Compound,% Inhibition [%],Z score
COc1ccc(CNCC(=O)Nc2cnccn2)c(F)c1F,16,-2.18
CC[C@H](C)n1nccc1NC(=O)c1csc2nc(C)cn12,-13,1.9
CC(C)c1nc2c(NS(=O)(=O)c3cccs3)cccn2n1,15,-1.75
Cc1cnc(C(=O)N[C@H]2CCO[C@@H]2c2cc[nH]n2)cc1C,4,-0.75
O=S(=O)(c1ccccc1Br)N1CCCN([C@H]2CCOC2)CC1,-12,2.06
c1cncc(Oc2cccc(OCc3nnc4n3CCCCC4)c2)c1,-6,1.04
C[C@H]1CNc2c(C=S)c3ccccc3n2C1,-12,1.85
Fc1ccccc1C1(CN2CCc3[nH]ncc3C2)CC1,-10,1.96
CCOC(=O)c1csc(N(c2ccc(C(F)(F)F)cc2)c2ncc(C(F)(F)F)cc2Cl)n1,0,0.01
NC(=O)C(NC(=O)C1CC2CCC1C2)c1cccc(Br)c1 (stereo not given),-9,1.37
Cc1n[nH]c(CNc2ncnc3scnc23)c1C,-2,0.3
Cc1nncn1-c1cccc(NC(=O)[C@@H]2COCCN2CC2CCC2)c1,-12,1.92
Cc1cnc(C2CN(C(=O)CCc3ccccc3)C2)n1CC1CC1,-13,1.69
O=S(=O)(c1cccnc1)N1CCC[C@H](Cc2nc(C3CC3)no2)C1,6,-0.78
O=C(c1nc2cnccc2s1)N1CCOC[C@@H]1CC1CC1,-2,0.19
Cc1ccc(OC2CCN(Cc3ccncc3)CC2)c(C(=O)NC2CCC2)c1,2,-0.26
CCCCNC(=O)Cc1noc(-c2noc3c2CCCC3)n1,-18,1.52
Cc1ncsc1CCC(=O)N(C)CCN(C)C1CC1,-3,0.33
O=C(c1cncc(F)c1)N1C2CCC1CC(n1cccn1)C2 (stereo not given),-22,2.83
CN1CCC(N(C[C@H]2CCOC2)C(=O)c2cc(Cl)ccc2F)CC1,-13,1.68
COc1ccc(CCNC(=O)[C@H]2CC(=O)N(C3CCCCCCC3)C2)cc1OC,0,-0.02
Cn1c(CN2CCCC2)nnc1C1CCN(c2nc3ccccc3o2)CC1,-9,1.14

Compound,% Inhibition [%],Z score
Cc1nc(N2CCCC2)c2c(C(=O)NCc3ccco3)c(C)oc2n1,7,-1.15
CCNc1nc(N2CCCCC2)nc2c1cnn2C,4,-0.66
O=C1CCN(C(=O)c2ccc(Cl)cc2)c2ccccc21,-9,1.24
Cn1c(Cn2cncn2)nnc1C1CCN(c2nccs2)CC1,-6,0.92
COc1ccc(Cl)cc1S(=O)(=O)N(C1CCCCC1)C1CCCCC1,-9,1.73
Cc1ccc(-c2ccc(C(=O)Nc3cccnc3)o2)cc1Cl,-2,0.25
Nc1c(Cl)ccc(Br)c1F,-7,0.91
Cc1nn(C)c(C)c1CCC(=O)N(C)C[C@@H]1OCCc2sccc21,-13,1.57
CC1(C)CC(=O)NCCN1Cc1cnn(-c2ccccc2)n1,-12,2.35
CCN1C(=O)[C@](C)(C(=O)Nc2cc(OC)ccc2OC)Oc2cccnc21,-4,0.74
COCCN(CC(=O)N1CCc2sccc2[C@@H]1COc1ccc(C(C)C)cc1)C(=O)Nc1ccc(C)cc1,-6,0.64
COCCn1nc([C@@H]2CCCCN2C(=O)c2ccn(C)n2)c2c1CCOC2,-13,1.24
C[C@@H](CCNC(=O)c1ccc(-c2nc(CCN(C)C(=O)c3ccc(F)cc3)no2)cc1)N1CCCC1,-23,2.08
Cc1nn(-c2ccc(F)cc2)c2c1c(=O)c(C(=O)NCCC(C)C)cn2C,-3,0.39
O=C(N[C@H]1CCOC2(CCC2)C1)c1ccc2c(c1)S(=O)(=O)Nc1ncnn1-2,0,-0.03
COc1cc(CCNS(=O)(=O)N2CCN(C)CC2)ccc1C,-7,0.8
Cc1nc2ccnn2cc1C(=O)N1CCOCC12CCC2,4,-0.74
O=C(Nc1ccc2oc(-c3ccc4ccccc4c3)nc2c1)c1ccccc1F,-11,1.64
COc1ccc(-c2ccnc3cc(C(=O)Nc4ccc(C(C)C)cc4)nn23)cc1OC,1,-0.09
CC(C)CC(CCO)CNC(=O)N1CC2CC=CCC2C1 (stereo not given),-3,0.37
CN(C)C(=O)[C@@H]1CCCN1c1cccc(F)c1C#N,-11,1.57
O=C(NCc1cccnc1)C1C2C(=O)N(CCc3ccccc3)C[C@@]23C=C[C@@H]1O3 (stereo not given in full),-7,0.85

Compound,% Inhibition [%],Z score
C#CCCN1CCN(C(=O)c2ccc3c(c2)COCO3)CC1,-4,0.45
COCc1nc2n(n1)CCCC2NCC(C)c1ccc(F)cc1 (stereo not given),-15,1.65
CCC(CC)[C@H](NC(=O)c1cc(OC)c(S(N)(=O)=O)s1)c1ccccc1,-10,1.36
CNS(=O)(=O)[C@H]1CCCN(Cc2nn(C)cc2C)C1,-7,1.35
CS(=O)(=O)C1(CNC(=O)c2c(F)ccc(O)c2F)CC1,-5,0.8
C#CCNC(=O)CNC(=O)c1cc(C)c(F)c(C)c1,0,-0.09
COc1ccc(S(=O)(=O)Nc2ccc(N3CCCCC3=O)c(C)c2)cc1,-16,2.51
Cc1n[nH]c(C)c1CNC(=O)C[C@@H]1OCCc2sccc21,-5,0.81
CCc1ccccc1-n1nc(-c2ccc(OC)cc2)cc1-c1ccc(OC)cc1,-10,1.56
C=CCn1cc(CN(C)Cc2nc(CC(C)C)no2)c(C)n1,-14,2.66
COc1cc(C)ccc1S(=O)(=O)N1CCCN(Cc2ccncc2)CC1,-11,1.3
COc1ccc(OC)c([C@H]2CC(=O)Nc3c2cnn3Cc2ccco2)c1,6,-0.79
CC(C)Cc1cc(C(=O)N[C@H](CO)C(C)C)c2ccccc2n1,-6,0.77
Cc1nc(CN(C)[C@@H](C)c2cccs2)n(C)c1C,11,-1.52
CC(C)CN(CC(=O)Nc1nc(CC(=O)NCc2ccccc2)cs1)C(=O)C1CCCCC1,4,-0.66
Cc1cscc1NC(=O)N1CCC[C@H](c2ccn(C)n2)C1,3,-0.59
O=C(Nc1cccc(-c2nnco2)c1)N1CCC12CCC2,-6,0.59
O=C(N[C@@H]1[C@H]2CCO[C@H]2[C@H]1Cc1ccccc1)c1ccc[nH]1,-11,1.1
CCOc1ccccc1[C@H](CC(=O)NCCCCNC(=O)OC(C)(C)C)NC(C)=O,0,0
CCOC(=O)N1CCC(Nc2nc3c(s2)c(C)nn3C)CC1,-4,0.61
COc1cc(C(=O)N[C@@H](CCO)C2CCOCC2)on1,-22,4.43
CC1COC(c2cccc(Cl)c2)CN1C(=O)Cn1cnnn1 (stereo not given),6,-1.13

Compound,% Inhibition [%],Z score
O=C(NCc1ccco1)C(=O)N1CCCC1,-6,0.88
CC(C)[C@H](Oc1ccc(F)cc1F)C(=O)NS(=O)(=O)c1cccnc1,-4,0.69
O=c1[nH]c(N2C[C@H](CO)C[C@H](CO)C2)nc2c1Cc1ccccc1OC2,-12,2.02
CN(Cc1cscn1)c1ccnc(CO)c1,22,-2.8
CC1=C(C(=O)N2CCOCC2)[C@H](c2ccc(OCc3ccccc3)cc2)n2ncnc2N1,31,-3.51
COc1c[nH]c(C(=O)Nc2ccc(-n3cnnn3)cc2)cc1=O,-4,0.47
COc1ccc(C(=O)Nc2cccc(C(C)(C)C)c2O)nn1,-4,0.64
CC(C)Cc1nc(N2CCCC2)c(C#N)c2c1COC(C)(C)C2,-11,1.34
CC(C)S(=O)(=O)[C@@H](C)C(=O)Nc1ccc2[nH]c(C3CCC3)nc2c1,0,0.03
CO[C@H]1CN(C)C[C@@H]1NC(=O)C(=O)c1ccccc1,-10,1.57
Cc1ccc(NC(=O)c2sc(-c3cccs3)nc2C)c(Cl)c1,-14,1.73
Cc1ccc(C(=O)N[C@H]2CCS(=O)(=O)C(C)(C)C2)c2c1CCC2,10,-1.91
C[C@@H]1CN(S(=O)(=O)c2cccc(C(=O)NCC3CCOCC3)c2)CCN1,-2,0.35
COCC(=O)Nc1ccc2c(c1)CN(C(=O)c1cc(C)nn1C)CCO2,-4,0.86
CC(C)CC(CCO)CNC(=O)N1CCOCC1C (stereo not given),-19,2.4
N#C[C@]1(NC(=O)c2ccc3c(c2)CCCCC3=O)CCc2ccccc2C1,-14,1.76
Cc1cc(Cl)ccc1-c1ccc2nc(-c3ccc(Cl)cc3)c(CN3CCN(S(=O)(=O)c4ccc(F)cc4)CC3)n2c1,-5,0.46
COCCOCCc1nc(C(=O)NCCc2ccsc2)c[nH]1,-9,1.08
COCC1(c2nc(-c3ccc(OC(F)F)c(OC)c3)no2)CCC1,9,-1.6
